# Measurements published in PubChem BioAssay (NCI).
#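 The compound was tested at five concentrations on cells cultured in 96-well plates, with a 48-hour exposure period. At the GI50, growth is halved. TGI: total growth inhibition.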
# System: NCI-H322M lung
# Assay: DTP human tumour cell line panel, 48 h
Compound,TGI [µM],GI50 [µM]
CCC/C(Cl)=N\OC(=O)Nc1ccc(F)cc1,> 100,
COC(=O)C1=C(O)C(C(=O)OC)C2CC(=O)CC1C2(C)C (stereo not given),> 100,
CCN(CCCOc1ccccc1)CCN(CC)CCCOc1ccccc1,30.6,
O=C1C2C3C=C4c5ccccc5N(c5ccccc5)C4(C2C(=O)N1c1ccccc1)C1C(=O)N(c2ccccc2)C(=O)C31 (stereo not given),> 100,
CC(=O)O[C@H]1CC(C)(C)C(=C=C/C(C)=C/C=C/C=C/C=C(C)/C=C2C=C(/C=C/[C@@]34O[C@]3(C)C[C@@H](O)CC4(C)C)C(=O)O/2)[C@](C)(O)C1,> 100,
COc1cc2c(c3c1c(=O)c1ccccc1n3C)C=CC1(CCCC1)O2,27.7,
O=C(/C=C(/C=C/c1ccc2[nH]ccc2c1)OB(F)F)/C=C/c1ccc2[nH]ccc2c1,> 100,3.11
CC(=O)c1c(O)c(C)c(O)c(Cc2c(O)c3c(c(C(=O)/C=C/c4ccccc4)c2O)OC(C)(C)C=C3)c1O,11.9,
C=CCSC1=N/C(=C\c2ccc(Cl)cc2)C(=O)N1CC=C,> 100,
O=C1CC(CC(=O)C2CCCCC2=O)C(=O)N1 (stereo not given),> 100,
O=S(=O)(Nc1ccc(Br)cc1)c1ccc(-c2cnc(C3CC3)o2)cc1,17.9,5.21
Cc1ccc2cnc(N)c(C#Cc3cc(C(=O)Nc4ccc(CN5CCN(C)CC5)c(C(F)(F)F)c4)cnc3C)c2c1,2.78,0.926
OC1[C@@H]2[C@@H](O)CCCN2C[C@@H](O)[C@H]1O (stereo not given in full),> 100,
CC12CCC(CC(=O)/C1=C(/Br)I)C2(C)C (stereo not given),33.8,
CC[O-].CC[O-].O=C([CH-]C(=O)c1ccccc1)CCCCCCCCC(=O)[CH-]C(=O)c1ccccc1.[Ti+4],> 100,> 100
O=C1/C(=C/c2ccc([N+](=O)[O-])cc2)CN(C(=O)CCN2CCC(=NO)CC2)C/C1=C\c1ccc([N+](=O)[O-])cc1,6.24,2.2
COC(=O)C1=CO[C@@H](OC2CC(CO)C(O)C(O)C2O)[C@@H]2[C@@H](C)[C@@H](OC(=O)/C=C/c3ccccc3)[C@@H](O)[C@H]12 (stereo not given in full) (tested in a mixture with another compound),> 100,
O=c1[nH]c2nc3ccccc3c(=O)n2/c1=C/c1ccc(Cl)cc1,> 100,
S=C1c2ccc(Cl)cc2-n2cnnc2C2CSCN12 (stereo not given),> 100,
CC(N=NNc1ccc(-c2nc3ccccc3[nH]2)cc1)C(=O)O (stereo not given),> 100,
COc1cccc(-c2nc3cc(NC(=O)c4ccc(Cl)c(C#N)c4)ccc3o2)c1,5.1,2.19
Cn1c(=O)nc2n(-c3ccc(O)cc3)c3ccccc3nc-2c1=O,> 100,
CO/N=C(\COc1ccc2c(c1)[nH]c1ccccc12)c1ccc(OC)cc1,> 100,7.8
O=C(COc1ccccc1Cl)N1N=C(c2ccc(Cl)cc2)CC1(O)c1ccccc1 (stereo not given),> 100,
C=C(c1ccccc1)C1(O)CCCCC1N (stereo not given),> 100,

Compound,TGI [µM],GI50 [µM]
COc1ccc(N2C(=O)C3c4[nH]c5ccc(OCc6ccccc6)cc5c4C4CCC(c5ccccc5)CC4C3C2=O)cc1 (stereo not given),> 100,
CN(C)CC(O)c1ccc(Cl)c2ccccc12 (stereo not given),> 100,
O=S(=O)(/N=c1\scc(-c2ccccc2)n1-c1ccccc1)c1ccc(N2N=C3c4ccccc4CC3C2c2ccc(Cl)cc2)cc1 (stereo not given),> 100,25.2
CCCCN(CCCC)Cc1cc(Nc2ccnc3cc(Cl)ccc23)ccc1O,> 100,5.12
Nc1ncn([C@@H]2S[C@H](CO)[C@@H](O)[C@@H]2F)c(=O)n1,> 100,> 24.4
CC(=O)c1c(C(F)(F)F)n([O-])c2ccccc2[n+]1=O,6.8,1.95
CCOC(=O)Oc1c(OC)cc(C(=O)c2ccc(OC)c(O)c2OC)cc1OC,> 100,2.2
c1ccc(C2ONC3=NCCN32)cc1 (stereo not given),> 100,67.9
O=C(O)CC(Cc1ccccc1Cl)C(=O)O (stereo not given),> 100,
Cc1cc2c(C)nn(Cc3ccccc3)c2c(C(=O)O)c1C,> 100,
O=S1(=O)c2ccccc2Oc2ccc(C(/C=N/O)=N/O)cc21,52.2,
COc1cc(C)ccc1C(=O)c1ccc(C)cc1OC,> 100,6.93
Cn1ccnc1CCc1c(Cl)cccc1Cl,> 100,
O=[N+]([O-])c1ccccc1N=Nc1c(O)[nH]c2cccc(C(F)(F)F)c12,> 100,
Nc1ncnc2c1ncn2C1OC(CSCC(F)(F)F)C(O)C1O (stereo not given),> 100,
O=C(O)c1nc(NCc2nc3cc(Cl)ccc3o2)n[nH]1,> 100,> 100
O=c1cc(-c2cccs2)[nH]c2cc3c(cc12)OCO3,> 100,
COc1ccc2c(c1)C(=O)CC1c3cnccc3C(=O)N21 (stereo not given),> 100,
[N-]=[N+]=Nc1c(Cc2ccccc2)c(Cl)nc2ccccc12,93.8,
CCc1cccc(C)c1NS(=O)(=O)c1ccccc1,> 100,
CCNCCNC(=O)c1ccc(I)cc1,> 100,
Clc1ccc(-c2cn3ccnc3c(-c3ccc(Cl)cc3)n2)cc1,> 100,18.8
O=C1OCC2=C1C(c1cccc(F)c1)c1cc3c(cc1N2CCO)OCO3 (stereo not given),> 50,4.01
Cn1c(=O)c2[nH]c(N/N=N/c3nncs3)nc2n(C)c1=O,> 100,
CC1CC[C@@]2(OC1)OC1C[C@H]3[C@@H]4CC=C5CC(OC6OC(CO)C(OC7OC(CO)C(O)C(OC8OCC(O)C(O)C8O)C7OC7OC(CO)C(OC8OC(C)C(OC9OC(C)C(O)C(O)C9O)C(O)C8O)C(O)C7O)C(O)C6O)CCC5(C)[C@H]4CCC3(C)C1[C@@H]2C (stereo not given in full),11.5,

Compound,TGI [µM],GI50 [µM]
CC(C)/C(Cl)=N/OC(=O)Nc1ccc(Br)cc1,28.5,
Oc1cccc(Nc2nc3ccccc3c3occc23)c1,1.34,
C/C(=N/O)c1cccc(Nc2cc(-n3nnc4ccccc43)nc3ccccc23)c1,60.8,14.7
Cc1ccc(S(=O)(=O)SC/C=C\CSS(=O)(=O)c2ccc(C)cc2)cc1,> 100,
O=C(NCC1CC1)c1ccc(-c2cccc(C(=O)NC3CC3)c2)cc1,> 25,> 25
CN1CCN(C(=S)N(C)C(=O)c2ccco2)CC1,> 100,
C=CCOC(=O)N1c2ccc(O[Si](C)(C)C(C)(C)C)cc2[C@@]23O[C@@]24[C@@H]1C#C/C=C\C#C[C@]3(O)C(OC)(OC)C[C@@H]4C,> 100,
c1cc[c]([Sn][c]2ccccc2)cc1,48.2,21.3
COC(=O)Cc1cc(O)c2c(c1O)C(=O)c1ccccc1C2=O,> 100,
C1CSCCCSCCCSCCCSCCCSCCCSCCCSCCCSC1,> 100,
N=C1C(O)C2(I)c3ccccc3N3C(=N)C(O)C4c5ccccc5N1C4C32 (stereo not given),> 100,
CCc1c(C#N)c(=O)[nH]c(=O)n1CCN1CCN(C(=O)NCCCCCCNC(=O)N2CCN(CCn3c(CC)c(C#N)c(=O)[nH]c3=O)CC2)CC1,> 100,
CN(C(=O)/C=C/c1ccccc1)C1C2CN3CCC(O2)C13 (stereo not given),> 100,
COC(=O)C1(NC(=O)C(CC(=O)OCc2ccccc2)NC(=O)OCc2ccccc2)CCCCCC1 (stereo not given),> 100,
Cc1nc(C(N)=O)c(N)n1CCN1CCN(C(=O)CCCCCCCCCCNC2N=CNc3nc[nH]c32)CC1 (stereo not given),> 100,
CCOC(=O)NC(=O)c1cn(CCN2CCN(C(=O)NCCCCCCNC(=O)N3CCN(CCn4cc(C(=O)NC(=O)OCC)c(=O)[nH]c4=O)CC3)CC2)c(=O)[nH]c1=O,> 100,
CNC(C)(C)Cc1ccc(Cl)cc1,> 100,
CCOC(=O)Cc1nc2ccc3c(c2[nH]c1=O)C(=O)c1ccccc1C3=O,> 100,
N#CN1C2CCC1CC(=O)C2,> 100,
O=C1c2cccc([N+](=O)[O-])c2C(=O)N1Cc1ccccc1,> 100,
O=C(O)CCc1nc2c(n1-c1ccccc1)C(=O)c1ccccc1C2=O,> 100,
O=C(Nc1ccc(N2C(=O)CSC2c2ccccc2O)cc1)c1ccc(N2C(=O)CSC2c2ccccc2O)cc1 (stereo not given),> 100,
NC(=O)CNC(=O)[C@@H]1CC(OCCC(=O)O)CN1C(=O)C1CCCN1C(=O)OCc1ccccc1 (stereo not given in full),> 100,
C=C1CCC2C3(C)COC(C)(C)OC3CCC2(C)C1C/C=C1/C(=O)OCC1OC(C)=O (stereo not given),29.2,13.6
CCN1C(=O)N(CC)C2C1NN=c1s/c(=C\c3ccc(Cl)cc3Cl)c(=O)n12 (stereo not given),> 100,0.0633

Compound,TGI [µM],GI50 [µM]
Nc1nc2ccc(-c3nc4ccc5[nH]ncc5c4c4c3CCC4)cc2s1,6.07,1.05
CCO/C(=N/S(=O)(=O)C(F)(F)F)N(C(C)C)C(C)C,> 100,
O=c1ncccn1[C@@H]1O[C@H](CO)[C@H](O)C1O (stereo not given in full),> 100,
CCn1nc(C)c2c1C(=O)NCC(=O)N2,> 100,
CSc1ncc2c(n1)C(C#N)C1Sc3ccccc3N1C2=O (stereo not given),> 100,
O=c1[nH]cc(NCCCl)c(=O)[nH]1,> 100,
C1=C(c2ccccc2)SC(N2CCCCC2)S1 (stereo not given),> 100,
C/C(CC(O)(C(F)(F)F)C(F)(F)F)=N\NC(N)=O,> 10,
CC(C)(C)c1ccc(OCCOc2ccc(C(C)(C)C)cc2N)c(N)c1,> 100,
CC1=C2C(=C[C@@](C)(CO)[C@@H]2OC(=O)N(C)CCN(C)C(=O)OC(C)(C)C)C(=O)[C@](C)(O)C12CC2,30.6,7.78
CC(C)(C)c1ccccc1N1C(=O)c2ccc3c4c(ccc(c24)C1=O)N(c1ccccc1C(C)(C)C)C3=O,> 100,
Cc1cc(C)nc(NS(=O)(=O)c2ccc(NC(=O)c3c4ccccc4nc4ccccc34)cc2)n1,> 100,
C#CCNC(CSSCC(N)C(=O)O)C(=O)O (stereo not given),> 100,
Cc1c2cnccc2c(C)c2c1c1cc(C#N)ccc1n2C,1.1,0.138
O=C(Oc1cccnc1)c1cccnc1Nc1ccnc(C(F)(F)F)c1,52.4,18.5
O=[N+]([O-])c1ccccc1OCCOc1ccccc1[N+](=O)[O-],> 100,
CCSC1=NC2C(N(CC)C(=O)N2CC)N1/N=C/C=C/c1ccccc1[N+](=O)[O-] (stereo not given),> 100,0.421
O=C(O)CN(CC(=O)O)C1CCCCC1N1CC(=O)OC(=O)C1 (stereo not given),> 100,
COc1ccc2nccc(C3=CCC4CCN(C(=O)c5ccccc5)C3C4)c2c1 (stereo not given),> 100,
CC1=C(C(=O)Nc2ccccc2C)C(c2ccc(Cl)cc2)C(C(=O)Nc2ccccc2C)=C(C)N1,> 100,
NC(=O)Nc1c(Cl)cc(S(N)(=O)=O)cc1Cl,> 100,
O=c1[nH]/c(=C/c2ccc(OCc3ccccc3)cn2)c(=O)[nH]/c1=C/c1ccccc1,> 100,
Cc1ccc2nc(SCC(=O)N=Nc3c(O)[nH]c4ccccc34)n(-c3ccccc3)c(=O)c2c1,25.5,
